This is an account of results in PMC7819943, “Rice protein-binding microarrays: a tool to detect cis-acting elements near promoter regions in rice”.

Some of the results follow.

This assay deals with T1, OsWOX13 (Oryza sativa, UniProt Q5QMM3 1-267).
T1 sequence: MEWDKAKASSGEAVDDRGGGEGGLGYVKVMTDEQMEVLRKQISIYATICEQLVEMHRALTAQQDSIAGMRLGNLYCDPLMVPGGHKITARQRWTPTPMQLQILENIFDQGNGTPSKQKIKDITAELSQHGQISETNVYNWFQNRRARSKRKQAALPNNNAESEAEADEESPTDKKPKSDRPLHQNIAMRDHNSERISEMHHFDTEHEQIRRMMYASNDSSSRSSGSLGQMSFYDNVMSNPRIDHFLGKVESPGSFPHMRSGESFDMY
The assay can be described thus: protein-binding microarray (RPBM); PBS, 2% BSA, 51.3 ng/ul salmon testes DNA, 50 uM zinc acetate, 200 nM TF, 25 C, 1 h; high values mean tight binding. Particulars: protein: recombinant; tags: N-terminal polyhistidine and DsRed monomer fusion (pET32a); label: CyDye5-dUTP incorporated in the synthesized complementary strand; 3' TTTTT single-stranded linker to array surface; dsDNA, one strand shown. The method, boiled down:
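Ni–NTA purification followed expression in E. coli BL21-CodonPlus of transcription factors fused N-terminally to a polyhistidine tag and DsRed. At 200 nM in PBS with 2% BSA, salmon testes DNA and 50 µM zinc acetate, the protein was incubated for 1 h at 25 °C with a custom Agilent array that had been primer-extended with Cy5-dUTP and blocked with 2% BSA. After washing, the array was read on an Axon 4000B scanner. The binding signal is per-feature fluorescence intensity in arbitrary units.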
Turning to “TGGTTAATTGAGATTTAATGATTTCAAACTTGAGAAAATACGGAGTCACCTAGTGCAG”, the binding signal is 29600 fluorescence intensity (a.u.).
The figure for “TATTTGCATTCAAATTTTGATTTATGAAATTTGTTCAGAACGGAGTCACCTAGTGCAG” is 3470 fluorescence intensity (a.u.); for “ATATATATATATATATATATATGGAATACATCATATCCAACGGAGTCACCTAGTGCAG” it is 15600 fluorescence intensity (a.u.).
The figure for “GTTTGATATTAAATGATGGTCGTCTTTTGCAACCGTCGAGCGGAGTCACCTAGTGCAG” is 3470 fluorescence intensity (a.u.); for “TATAATTGATGGAACAAGTAGTATTTAGGAGTGACGAGTACGGAGTCACCTAGTGCAG” it is 37200 fluorescence intensity (a.u.).
To “CCATTTCATTTGCACATCCAATCAGAATCAGGCGTAGGCACGGAGTCACCTAGTGCAG” belongs 4280 fluorescence intensity (a.u.); to “AGTTAATTCAAAATAGAGTAGCCTAATGCGCTACTCTGGGCGGAGTCACCTAGTGCAG”, 7920 fluorescence intensity (a.u.).
Regarding “CCCCGCTTGATAGATTCGAGCACGCACGCCGGGTTGGCGCCGGAGTCACCTAGTGCAG”, the binding signal was 9730 fluorescence intensity (a.u.).
The figure for “ACGCAATTGATGCCATTTGCTTACAACACCATTGGCATTTCGGAGTCACCTAGTGCAG” is 5740 fluorescence intensity (a.u.).
Consider “CATAAATTAATTTGTTCACGTCACATTATATACAGTTGTACGGAGTCACCTAGTGCAG”, for which the binding signal is 55000 fluorescence intensity (a.u.).
For the sequence “AAATTCAATCTAGCTTTCTAATAGCCCGTCTTTGTTTAATCGGAGTCACCTAGTGCAG”, the binding signal is 3720 fluorescence intensity (a.u.).
To “ACGGAGGAGGAACAATCAAAATTGATAACAGGAAAATAGTCGGAGTCACCTAGTGCAG” belongs 4100 fluorescence intensity (a.u.); to “CGTAATTAGGCTTAAAAGATTTCTCTCACGATTTACACGTCGGAGTCACCTAGTGCAG”, 35300 fluorescence intensity (a.u.).
To “TCAAAATCAGTCACAATAAATTCGGTTTTGATCCCGGTTTCGGAGTCACCTAGTGCAG” belongs 5110 fluorescence intensity (a.u.); to “TTATTTGTTTTGTTTGTGATTTGCTTTATTATCAAAAGTACGGAGTCACCTAGTGCAG”, 4600 fluorescence intensity (a.u.).
The figure for “TATGCAGTTTTACAATAATTTAATTAAAGTACAGTTTTGTCGGAGTCACCTAGTGCAG” is 5420 fluorescence intensity (a.u.).
On to “ACGGATGATTAAAGTTTAATAGAGAAACTTATGATTGTGCCGGAGTCACCTAGTGCAG”, for which the binding signal is 34900 fluorescence intensity (a.u.).
As to “AGCTTTGATTTAGAAACGTAGGTGCGGGATGTTGTTATTCCGGAGTCACCTAGTGCAG”, the binding signal is 6330 fluorescence intensity (a.u.).
To “AATGATTTTAAACCTGCAAATTGGGCGCAAATTGCTGATCCGGAGTCACCTAGTGCAG” belongs 21200 fluorescence intensity (a.u.); to “AACTTAGACTGCGGTAAAGATCATTGGAGAGAGACTAGAGCGGAGTCACCTAGTGCAG”, 4610 fluorescence intensity (a.u.).
The figure for “ATCTAATTGGGCCTCATTAACATGGGCTTACAGTGGGCCACGGAGTCACCTAGTGCAG” is 21100 fluorescence intensity (a.u.); for “ATTACATAAATTGTGTGTAGATTGCCATGATTTGACAATGCGGAGTCACCTAGTGCAG” it is 19900 fluorescence intensity (a.u.); for “TGTAATTATATTTATATTAGTACCTCATCAGTGTCTTGAACGGAGTCACCTAGTGCAG” it is 23900 fluorescence intensity (a.u.).
The figure for “ACAAATTGAAGAAAGCATTTCCAGAACTGGTGCAAGAAGTCGGAGTCACCTAGTGCAG” is 17200 fluorescence intensity (a.u.).
Consider “GACACCATACTGATTAGTCTTTTCATGCATTGCAGTATTTCGGAGTCACCTAGTGCAG”, for which the binding signal was 5520 fluorescence intensity (a.u.).
The figure for “ACATGGTGATTTAACATAATTTAGCCATGATTTTGAAGGCCGGAGTCACCTAGTGCAG” is 40200 fluorescence intensity (a.u.); for “AGCATCATTGTAATTACACGGTAACTTTCATATAATTTAACGGAGTCACCTAGTGCAG” it is 18400 fluorescence intensity (a.u.); for “GGTATTAATTGTCGAGCCATGCATCCACGTGCACAGGGTACGGAGTCACCTAGTGCAG” it is 9210 fluorescence intensity (a.u.).
To “ACTGAATGACAAGTTGAGGGATCTTCGGTGTACTATTGGGCGGAGTCACCTAGTGCAG” belongs 11400 fluorescence intensity (a.u.); to “ATTAATTTGTGTGAAACTGACATACGAGTCTTACGGGGTTCGGAGTCACCTAGTGCAG”, 36200 fluorescence intensity (a.u.).
The figure for “CAAATTTTGAGGGAGATTGAAGGCGACCTGTCCGGGTTCACGGAGTCACCTAGTGCAG” is 9740 fluorescence intensity (a.u.); for “TGCTACATGATTATGTGAAATTAAAGATCTGAAGGAATGTCGGAGTCACCTAGTGCAG” it is 20500 fluorescence intensity (a.u.).
On to “ACATGAACACAGATATATTAATTGCTTGTAGTACGCCTGCCGGAGTCACCTAGTGCAG”, for which the binding signal is 3430 fluorescence intensity (a.u.).
To “GATTGAAATTGAAGATGATGTGACTGAAAAGTTGGGTATGCGGAGTCACCTAGTGCAG” belongs 27500 fluorescence intensity (a.u.).
The figure for “TTATAATTAGAACTTTTATATGTGTGTTATGCACGACTTACGGAGTCACCTAGTGCAG” is 4050 fluorescence intensity (a.u.).
To “ATTGACTTGACGACCGCCATGAATTCATCTCATCTCATCTCGGAGTCACCTAGTGCAG” belongs 5970 fluorescence intensity (a.u.).
Consider “CTGATGATTCACCCATGATCGATTGCTCGATCCGTTTAAGCGGAGTCACCTAGTGCAG”, for which the binding signal was 3710 fluorescence intensity (a.u.).
To “TCTTAATTTCTATCAATAATTTAATTTAGCATATAATAACCGGAGTCACCTAGTGCAG” belongs 31300 fluorescence intensity (a.u.); to “CCTGAATGATCATCAGCATCACTGTCTTCTCTTCAGGGATCGGAGTCACCTAGTGCAG”, 19300 fluorescence intensity (a.u.).
To “TTTTGATAGGACCACTATATATAAAGTGGTTCTTTACACGCGGAGTCACCTAGTGCAG” belongs 5620 fluorescence intensity (a.u.); to “TGGTCCAATCACGAGTTCATTATCTGTAATTGGGACGAAGCGGAGTCACCTAGTGCAG”, 21200 fluorescence intensity (a.u.); to “CTAATTGTAACAGGATTGGGCAATGGTCCGATCTGAGGGTCGGAGTCACCTAGTGCAG”, 18400 fluorescence intensity (a.u.).
Turning to “TGCGAATTGTTTGATTAGTGCGCCGTGTCCGGAACCGTTTCGGAGTCACCTAGTGCAG”, the binding signal is 17600 fluorescence intensity (a.u.).
The figure for “GTTCTTCTATTTCTCTTTTATCTTTTCATAGTTTCGATTTCGGAGTCACCTAGTGCAG” is 3500 fluorescence intensity (a.u.); for “GATTGATGGATGGATACAGCTTTACCATTTCTTACATCCCCGGAGTCACCTAGTGCAG” it is 31500 fluorescence intensity (a.u.).
To “CTCTTAATTAAATGCATCCATGCATGCGCATCATAATATGCGGAGTCACCTAGTGCAG” belongs 35100 fluorescence intensity (a.u.); to “CATATGGATTAATTAGTACTCGATTCTGACAGTAATGGAACGGAGTCACCTAGTGCAG”, 11800 fluorescence intensity (a.u.).
Regarding “ATGATTGTTCTTGTTATTGTGCATATGAATCATGATTAATCGGAGTCACCTAGTGCAG”, the binding signal was 26000 fluorescence intensity (a.u.).
As to “AGTAATTCTTAAATTTCCTTTAGTGATAAAACAGGTCACACGGAGTCACCTAGTGCAG”, the binding signal is 3690 fluorescence intensity (a.u.).
To “CTGTACTAACCACTTTTGATTAGGAGTAGGAGTACTGATTCGGAGTCACCTAGTGCAG” belongs 3420 fluorescence intensity (a.u.); to “GGTTAATTTCTTTCAATGGAATTGGGTCGCCTAGAACTGACGGAGTCACCTAGTGCAG”, 20800 fluorescence intensity (a.u.); to “AGCTGATGATTTACGGTGTAAGCTGGGTTCTCCTAAAAGCCGGAGTCACCTAGTGCAG”, 26200 fluorescence intensity (a.u.).
The figure for “CGCCATGATTTGACAATGTAGTGCTACAGTAAACATTTGACGGAGTCACCTAGTGCAG” is 12000 fluorescence intensity (a.u.).
Regarding “ATTAACTGGCCGAGCTTCAGTTAATTCATTTGTGGCTCCACGGAGTCACCTAGTGCAG”, the binding signal was 6580 fluorescence intensity (a.u.).
